Experimental data taken from US20250325691A1, “HER2-GST-SN-38 COMPLEX, AND PHARMACEUTICAL COMPOSITION COMPRISING SAME FOR PREVENTING OR TREATING PROLIFERATIVE DISEASES” (priority 2022, published 2025).

Legend:
[1] = Body weight and clinical symptoms in MKN45-transplanted mice; assay type: in vivo, mouse; details: 3, 6, 12 mg/kg IV
Description: (§1) Specifically, for the anticancer efficacy test, 6-week-old NIG mice (NOD/SCID, GH Bio Co., Ltd.) were purchased and bred in an environment of free access to feed and water, acclimated for more than 10 days, and then transplanted with tumor cells. As the tumor cells, HER2-positive gastric cancer MKN45 cells were subcutaneously administered at a dose of 5×10^6 cells/100 μL onto a fixed site on the left flank. After 1 week, a tumor was measured until the start of test substance administration, and individuals having tumors reached a size of about 150 mm^3 were selected and randomly distributed to each test group. Then, administration began.
The test group was divided into a PBS-administered control group and KMD111-administered groups at 3 mg/kg, 6 mg/kg, and 12 mg/kg based on SN-38, having three mice per group. Intravenous injection (IV) was performed once every three days for 21 days, a total of eight times. Then, the tumor size and body weight were measured from Day 11 after the cancer cell transplantation (Day 0) to the end date (for 32 days). The tumor size, relative tumor volume (RTV), and tumor growth inhibition % (TGI %) were calculated according to the following equations, by measuring a long axis length and a short axis length of the tumor. […]

MKN45 tumor = assay: In vivo anticancer efficacy in mouse model transplanted with MKN45; details: 3, 6, 12 mg/kg IV, compared to PBS-administered group
Description: To confirm the anticancer effect of the KMD111 against target tumor cells, tests were performed in an in vivo environment using a mouse animal model transplanted with a human gastric cancer cell line MKN45.
as §1
The test group was divided into a PBS-administered control group and KMD111-administered groups at 3 mg/kg, 6 mg/kg, and 12 mg/kg based on SN-38, having three mice per group. […] Then, the tumor size and body weight were measured from Day 11 after the cancer cell transplantation (Day 0) to the end date (for 32 days). The tumor size, relative tumor volume (RTV), and tumor growth inhibition % (TGI %) were calculated according to the following equations, by measuring a long axis length and a short axis length of the tumor.

B1: KMD111 (conjugate)
chain: MAEKPKLHYFNARGRMESTRWLLAAAGVEFEEKFIKSAEDLDKLRNDGYLMFQQVPMVEIDGMKLVQTRAILNYIASKYNLYGKDIKERALIDMYIEGIADLGEMILLLPVCPPEEKDAKLALIKEKIKNRYFPAFEKVLKSHGQDYLVGNKLSRADIHLVELLYYVEELDSSLISSFPLLKALKTRISNLPTVKKFLQPGSPRKPPMDEKSLEEARKIFRFSGGGSGGGSGGGSGGGSGGGSGGGVDNKFNKEMRNAYWEIALLPNLNNQQKRAFIRSLYDDPSQSANLLAEAKKLNDAQAPK
In the case of B1, the body weight [1] is reported as “weight loss was observed”, the clinical symptoms [1] is reported as “no special clinical symptoms were observed” and the tumor size (MKN45 tumor) is reported as “significant reduction in tumor size in a concentration-dependent manner”.
